From PubChem BioAssay AID485294 (National Center for Advancing Translational Sciences (NCATS), 2010)
The whole screen tested about 370,000 compounds, of which about 150 (0.041%) were called active. This list was built around the results that the source calls inconclusive (neither active nor inactive); the mix of calls is not that of the screen. The call rests on the fitted dose curve; in most records, active means well fitted inhibition curve with a large enough effect; inconclusive means small, poorly fitted or top-dose-only effect; inactive means flat fitted curve, though single readings scatter. No potency is given beside an inconclusive call; the fits are too rough.

Biological target: Beta-lactamase (Escherichia coli (strain K12)) (UniProt P00811)
Experiment: qHTS Inhibitors of AmpC Beta-Lactamase (assay with detergent); further: nearly all actives have a fitted effect of over 25% in size
Conditions: AmpC hydrolysis of nitrocefin, absorbance 480 nm, 0.01% Triton; series mostly up to 114 µM
Method in brief: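 AmpC (5.3 nM in the dispensed reagent) in 20 mM phosphate pH 7.0 with 0.01% (detergent screen) or 0.0001% Triton X-100 was preincubated with compounds for 15 min at room temperature. Nitrocefin was then added from an 800 uM solution, and hydrolysis was followed at 480 nm.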
Potency means the concentration at half of the fitted maximal effect; tags describe the fitted curve by direction and shape.

Chain of UniProt P00811 (P00811 whole entry, looked up): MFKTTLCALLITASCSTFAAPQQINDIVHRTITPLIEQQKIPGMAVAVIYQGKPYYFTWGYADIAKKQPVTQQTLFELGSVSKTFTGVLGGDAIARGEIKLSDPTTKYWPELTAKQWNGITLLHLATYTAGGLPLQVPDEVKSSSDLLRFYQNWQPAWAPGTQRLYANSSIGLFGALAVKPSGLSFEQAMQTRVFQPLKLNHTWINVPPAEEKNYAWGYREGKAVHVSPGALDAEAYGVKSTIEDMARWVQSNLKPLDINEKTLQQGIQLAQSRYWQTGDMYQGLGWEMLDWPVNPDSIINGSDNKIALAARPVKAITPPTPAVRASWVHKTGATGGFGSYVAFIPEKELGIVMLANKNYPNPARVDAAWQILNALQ

SMILES | Potency
CC1Cc2ccccc2N1C(=O)COC(=O)c1ccc(Cl)nc1 (stereo unspecified) | inconclusive [inhibitor, single point]
Cc1ccc(OCc2ccc(C(=O)Nc3c(C)nn(Cc4c(F)c(F)c(F)c(F)c4F)c3C)o2)c([N+](=O)[O-])c1 | inconclusive [inhibitor, partial curve, poor fit]
O=C(COc1ncnc2ccccc12)NC1CCS(=O)(=O)C1 (stereo unspecified) | inconclusive [inhibitor, full curve, poor fit]
COC(=O)c1ccc(CSc2ncnc3sc(C)c(C)c23)o1 | inconclusive [inhibitor, full curve, poor fit]
COc1ccc(Nc2nc3c(C)cccc3cc2C#N)cc1 | inactive
OC(COCc1cccs1)CN1CCCCCC1 (stereo unspecified) | inconclusive [inhibitor, full curve, poor fit]
CCCCCc1ccc(-c2cn(CN3C(=O)c4ccccc4C3=O)nn2)cc1 | inconclusive [inhibitor, partial curve, poor fit]
CCc1cccc(C)c1NC(=O)CN1C(=O)C2(SCC(=O)N2c2cccc(F)c2)c2ccccc21 (stereo unspecified) | inconclusive [inhibitor, single point]
C/C(CC(=O)Nc1ccccn1)=N\NC(=O)c1ccccc1 | inconclusive [inhibitor, full curve, poor fit]
Cc1cc(C)nc(N2CCCC(C(=O)NCCC3=CCCCC3)C2)n1 (stereo unspecified) | inconclusive [inhibitor, full curve, poor fit]
CCCc1ccc(OCc2ccc(C(=O)O)o2)c(OC)c1 | inactive
CN(Cc1ccccc1)S(=O)(=O)c1ccc(NC(=O)c2cc(=O)c3ccccc3o2)cc1 | inactive
COc1ccc(NC(=O)C2=CC(c3ccc(C)cc3)=NS(=O)(=O)N2C)cc1 | inconclusive [inhibitor, full curve, poor fit]
CC(=O)Nc1ccc(S(=O)(=O)N[C@H](C(=O)O)C(C)C)cc1 | inconclusive [inhibitor, full curve, poor fit]
CC(=O)Nc1sc2c(c1CN1CCN(c3ccc(F)cc3)CC1)CCCC2 | inconclusive [inhibitor, full curve, poor fit]
CCN(CC)S(=O)(=O)c1ccc(C)c(NC(=O)CNc2cccc(S(=O)(=O)N3CCCC3)c2)c1 | inactive
Cc1cccc(N2CCN(c3cc(C)nc4nnnn34)CC2C)c1 (stereo unspecified) | inactive
COc1ccc(NC(=O)c2cccs2)cc1NC(=O)c1ccco1 | inconclusive [inhibitor, single point]
COc1ccc2cc(C(=O)NCc3ccccc3)c(=O)oc2c1 | inactive
CCc1ccc(/C=N/NC(=O)c2cc(-c3ccccc3OC)nc3ccccc23)s1 | inconclusive [inhibitor, single point]
Cc1ccc(CN2CCc3c(OCc4ccc(F)cc4)cccc3C2=O)cc1 | inactive
O=C1CCCN1C(=O)CSc1ncnc2sccc12 | inconclusive [inhibitor, full curve, poor fit]
COc1cccc(C(=O)N2c3ncnn3C3(CCCCC3)[C@@H]3CCCC[C@@H]32)c1 | inactive
O=C(CC(c1ccccc1)c1cc(Br)ccc1O)NCc1ccco1 (stereo unspecified) | inconclusive [inhibitor, full curve, poor fit]

SMILES | Potency
CC(=O)N1CCc2cc(Br)cc(S(=O)(=O)N3CCC(C(=O)Nc4ccc(C(C)C)cc4)CC3)c21 | inactive
CC(C)NC[C@H](O)c1ccc(O)c(O)c1 | inconclusive [inhibitor, full curve, poor fit]
CCN(c1ccccc1)S(=O)(=O)c1ccc(Cl)c(C(=O)N(CC2CCCO2)C2CCS(=O)(=O)C2)c1 (stereo unspecified) | inactive
CS(=O)(=O)N(CC(=O)NCc1ccccc1)c1ccc(Cl)cc1 | inconclusive [inhibitor, full curve, poor fit]
CSc1ncc(C(=O)Nc2cccc(Cl)c2C)c(C)n1 | inactive
C(#CCN1CCC(Cc2ccccc2)CC1)COCCOCc1ccccc1 | inconclusive [inhibitor, full curve, poor fit]
Cn1ccsc1=NC(=O)c1ccc(S(C)(=O)=O)c([N+](=O)[O-])c1 | inactive
COc1ccc(/C=C2\SC(=S)N(CCC(=O)Nc3cccc(C(=O)O)c3)C2=O)cc1OC | inconclusive [inhibitor, full curve, poor fit]
O=S(=O)(NCc1cccnc1)c1ccc(Cl)c(Cl)c1 | inconclusive [inhibitor, full curve, poor fit]
CCN=C1S/C(=C\c2cc(Br)ccc2OCC(=O)OCC)C(=O)N1CC | inconclusive [inhibitor, full curve]
O=C(Nc1c(Cl)cc(Cl)cc1-c1nc2ccccc2s1)c1ccc(Br)o1 | inconclusive [inhibitor, single point]
COc1ccccc1NC(=S)N(Cc1ccccc1)Cc1cccs1 | inactive
CN1CCN(C(=O)CSc2nc(-c3cccs3)ccc2C#N)CC1 | inconclusive [inhibitor, full curve, poor fit]
COc1ccc(/C=N/NC(=O)OC(C)(C)C)cc1OC | inactive
Cc1ccc(C(OCC(O)CNCc2ccc(F)cc2)c2ccccc2)cc1 (stereo unspecified) | inactive
COc1cc2c(cc1OC)C(c1cccs1)N(C(=O)c1cccc(S(=O)(=O)N(C)C)c1)CC2 (stereo unspecified) | inactive
CCOC(=O)c1ccc(NC(=O)CCS(=O)(=O)c2cccc3nonc23)cc1 | inconclusive [inhibitor, single point]
COc1ccc(C2C=C(c3ccc(Cl)cc3)Nc3nc(-c4ccc(Cl)cc4)nn32)cc1 (stereo unspecified) | inactive
O=C1NC(=O)C(=Cc2ccc(OCCOc3ccc([N+](=O)[O-])cc3)cc2)C(=O)N1 | inactive
Cc1ccc(-c2noc(-c3ccc(N4CCN(C)CC4)c([N+](=O)[O-])c3)n2)cc1 | inactive
COC(=O)c1ccc(NC(=O)CCCC(=O)OCC(=O)c2ccc(Cl)cc2)cc1 | inactive
COc1nc(C)ccc1-c1noc(-c2cccnc2)n1 | inconclusive [inhibitor, partial curve, poor fit]
COc1ccc(-n2c(-c3ccccc3)nnc2-c2ccc(Cl)cc2)cc1 | inconclusive [inhibitor, partial curve]
Clc1ccc(N2CCCCCC2)nn1 | inconclusive [inhibitor, full curve, poor fit]

SMILES | Potency
CC(C)N1CN=C(Nc2nc3ccccc3o2)NC1 | inactive
O=C(NCCCN1CCCC1=O)C1CCN(S(=O)(=O)c2ccccc2)CC1 | inconclusive [inhibitor, full curve, poor fit]
CCc1ccc(C(=O)COC(=O)CNC(=O)c2ccc(N3C(=O)c4ccccc4C3=O)cc2)cc1 | inactive
CCN(CC(=O)Nc1ccccc1C(F)(F)F)C(=O)c1cc2c(s1)CCCCC2 | inconclusive [inhibitor, partial curve, poor fit]
CCC1(c2ccccc2)NC(=O)N(CC(=O)N(C)Cc2c(F)cccc2Cl)C1=O (stereo unspecified) | inconclusive [inhibitor, full curve, poor fit]
O=C(Nc1cccc(Cl)c1N1CCCC1)c1ccc(Br)o1 | inconclusive [inhibitor, single point]
Cc1ccc2nc(-c3ccncc3)cc(-c3ccccc3)c2c1 | inactive
CCCCCCSc1ccc(-c2nc3ccc(C)cn3c2NC2CCCCC2)cc1 | inconclusive [inhibitor, single point]
CC1=C(C(=O)OCc2ccc3c(c2)OCO3)C(c2ccc(F)cc2)NC(=O)N1 (stereo unspecified) | inconclusive [inhibitor, partial curve]
CCc1ccc(CNC(=O)c2cnc3sc(N4CCOCC4)nn3c2=O)cc1 | inactive
O=C(O)c1cc(-c2ccc(Cl)c(Cl)c2)n(-c2ccc(F)cc2)n1 | inconclusive [inhibitor, partial curve]
Cc1c(CCOC(=O)c2ccccc2)sc[n+]1Cc1ccccc1 | inactive
Cc1cc2cc(CNC(=O)c3cccs3)ccc2[nH]1 | inconclusive [inhibitor, full curve, poor fit]
Cc1ccc(C(=O)OCC(=O)NCc2ccc(Cl)cc2Cl)o1 | inconclusive [inhibitor, full curve, poor fit]
CCN(CC)CCCN1C(=O)CSC1c1ccc2c(c1)OCO2 (stereo unspecified) | inactive
CN1CCN(CCP(=O)(c2ccccc2)c2ccccc2)CC1 | inconclusive [inhibitor, full curve]
CC(C)c1nn2c(=O)cc(COC(=O)c3cccs3)nc2s1 | inactive
COc1ccc([N+](=O)[O-])cc1NC(=O)CSc1ccc2ccccc2c1 | inconclusive [inhibitor, full curve, poor fit]
O=C(Cc1cccc(C(F)(F)F)c1)N1CCN(CC(=O)N2CCCC2)CC1 | inactive
O=C(NNC(=S)Nc1ccccc1)c1cccc(Br)c1 | inconclusive [inhibitor, partial curve]
O=C(NCc1ccco1)Nc1ccc([N+](=O)[O-])cc1 | inactive
O=C(NCCN1CCOCC1)c1ccc2c(c1)N(Cc1ccccc1)C(=O)CS2 | inconclusive [inhibitor, partial curve]
CCOC(=O)Cn1c(=O)oc2cc(S(=O)(=O)N3CCN(c4cccc(C)c4)C(C)C3)ccc21 (stereo unspecified) | inactive
